# Measured values reported in the supplement of paper PMC10037445.
# Whole data set: some 2,900 compounds, median “NF-kB SEAP reporter activity, fold change vs agonist alone” near 0.99, cut for the highest 2% near 2.6. The list shows a part of the results.
# How the values were obtained:
# RAW-Dual [1] = assay: NF-kB SEAP reporter activity, fold change vs agonist alone; higher = enhanced NF-kB activity
# Summary of the method: (§1)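 After 50 nL of library stock was delivered by pin tool to RAW-Dual macrophages (50,000 cells/well, DMEM, 384-well plates), a PRR agonist was added 1 h later and the plates were kept at 37 °C, 5% CO2. Twenty hours later, IRF was read from supernatant by QuantiLuc luminescence and NF-κB by QuantiBlue absorbance at 620 nm. Reporter activity is stated as fold change over agonist-alone wells. Wells with IncuCyte confluency under 70% of agonist controls in both mask sets were counted as cytotoxic.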
# RAW-Dual [2] = assay: NF-kB SEAP reporter activity, fold change vs agonist alone; cytotoxicity flag (confluency mask): cytotoxic (confluency <70% of control); higher = enhanced NF-kB activity
# Summary of the method: as §1
# RAW-Dual [3] = assay: NF-kB SEAP reporter activity, fold change vs agonist alone; cytotoxicity flag (confluency mask): not cytotoxic; higher = enhanced NF-kB activity
# Summary of the method: as §1
# [4] = library stock concentration (final ~1000-fold dilution): 10 mM, cytotoxicity flag (confluency mask): cytotoxic (confluency <70% of control), agonist: Imiquimod (TLR7) […]
# [5] = library stock concentration (final ~1000-fold dilution): 10 mM, cytotoxicity flag (confluency mask): cytotoxic (confluency <70% of control), agonist: MPLA (TLR4) […]
# [6] = agonist: ODN 1826 (TLR9) 0.5 ug/mL
# [7] = agonist: Pam2CSK4 (TLR2/6) 0.1 ug/mL
# [8] = agonist: Pam3CSK4 (TLR2/1) 0.1 ug/mL
# [9] = library stock concentration (final ~1000-fold dilution): 10 mM, cytotoxicity flag (confluency mask): not cytotoxic, agonist: Imiquimod (TLR7) […]
# [10] = library stock concentration (final ~1000-fold dilution): 10 mM, cytotoxicity flag (confluency mask): not cytotoxic, agonist: MPLA (TLR4) […]
smiles,measurement,setting,value
CCN(CC)CCNC(=O)c1c(C)[nH]c(/C=C2\C(=O)Nc3ccc(F)cc32)c1C,NF-kB SEAP reporter activity,RAW-Dual [1]; [4],0.949
same,NF-kB SEAP reporter activity,RAW-Dual [1]; [5],0.803
CCN(CC)CCNC(=O)c1c(C)[nH]c(/C=C2\C(=O)Nc3ccc(F)cc32)c1C (library stock concentration (final ~1000-fold dilution): 10 mM),NF-kB SEAP reporter activity,RAW-Dual [2]; agonist: LPS (TLR4) 0.1 ug/mL,0.649
same,NF-kB SEAP reporter activity,RAW-Dual [2]; [6],0.197
same,NF-kB SEAP reporter activity,RAW-Dual [2]; [7],0.213
same,NF-kB SEAP reporter activity,RAW-Dual [2]; [8],0.446
O=C(NCc1ccccc1)c1csc(Nc2ccncn2)n1 (library stock concentration (final ~1000-fold dilution): 10 mM),NF-kB SEAP reporter activity,RAW-Dual [3]; agonist: LPS (TLR4) 0.1 ug/mL,0.844
same,NF-kB SEAP reporter activity,RAW-Dual [3]; [6],1.01
same,NF-kB SEAP reporter activity,RAW-Dual [3]; [7],0.988
same,NF-kB SEAP reporter activity,RAW-Dual [3]; [8],1.33
O=C(NCc1ccccc1)c1csc(Nc2ccncn2)n1,NF-kB SEAP reporter activity,RAW-Dual [1]; [9],0.928
same,NF-kB SEAP reporter activity,RAW-Dual [1]; [10],0.935
C=CC(=O)Nc1cc2c(Nc3ccc(F)c(Cl)c3)ncnc2cc1OCCCN1CCOCC1,NF-kB SEAP reporter activity,"RAW-Dual [1]; library stock concentration (final ~1000-fold dilution): 2 mM, cytotoxicity flag (confluency mask): not cytotoxic, agonist: Imiquimod (TLR7) […]",1.3
same,NF-kB SEAP reporter activity,"RAW-Dual [1]; library stock concentration (final ~1000-fold dilution): 2 mM, cytotoxicity flag (confluency mask): not cytotoxic, agonist: MPLA (TLR4) […]",1.18
C=CC(=O)Nc1cc2c(Nc3ccc(F)c(Cl)c3)ncnc2cc1OCCCN1CCOCC1 (library stock concentration (final ~1000-fold dilution): 2 mM),NF-kB SEAP reporter activity,RAW-Dual [3]; agonist: LPS (TLR4) 0.1 ug/mL,1.53
same,NF-kB SEAP reporter activity,RAW-Dual [3]; [6],1.05
same,NF-kB SEAP reporter activity,RAW-Dual [3]; [7],1.34
same,NF-kB SEAP reporter activity,RAW-Dual [3]; [8],1.17
CNCc1ccc(-c2cc(-c3nc(-c4ccc(S(=O)(=O)C(C)C)cc4)cnc3N)on2)cc1 (library stock concentration (final ~1000-fold dilution): 10 mM),NF-kB SEAP reporter activity,RAW-Dual [3]; agonist: LPS (TLR4) 0.1 ug/mL,1.06
same,NF-kB SEAP reporter activity,RAW-Dual [3]; [6],0.943
same,NF-kB SEAP reporter activity,RAW-Dual [3]; [7],0.871
same,NF-kB SEAP reporter activity,RAW-Dual [3]; [8],1.05
CNCc1ccc(-c2cc(-c3nc(-c4ccc(S(=O)(=O)C(C)C)cc4)cnc3N)on2)cc1,NF-kB SEAP reporter activity,RAW-Dual [1]; [9],0.858
same,NF-kB SEAP reporter activity,RAW-Dual [1]; [10],0.98
COC(=O)Nc1nc2ccc(C(=O)c3cccs3)cc2[nH]1 (library stock concentration (final ~1000-fold dilution): 10 mM),NF-kB SEAP reporter activity,RAW-Dual [2]; [6],3.14
COC(=O)Nc1nc2ccc(C(=O)c3cccs3)cc2[nH]1,NF-kB SEAP reporter activity,RAW-Dual [1]; [4],2.68
Nc1ncc2[nH]cnc2n1,NF-kB SEAP reporter activity,"RAW-Dual [1]; library stock concentration (final ~1000-fold dilution): 1000 mM, cytotoxicity flag (confluency mask): not cytotoxic, agonist: Imiquimod (TLR7) […]",0.724
same,NF-kB SEAP reporter activity,"RAW-Dual [1]; library stock concentration (final ~1000-fold dilution): 1000 mM, cytotoxicity flag (confluency mask): not cytotoxic, agonist: MPLA (TLR4) […]",0.746
Nc1ncc2[nH]cnc2n1 (library stock concentration (final ~1000-fold dilution): 1000 mM),NF-kB SEAP reporter activity,RAW-Dual [3]; agonist: LPS (TLR4) 0.1 ug/mL,0.689
same,NF-kB SEAP reporter activity,RAW-Dual [3]; [6],1.03
same,NF-kB SEAP reporter activity,RAW-Dual [3]; [7],0.992
same,NF-kB SEAP reporter activity,RAW-Dual [3]; [8],0.971
N#C/C(=C/c1ccc(-c2cc(Cl)ccc2Cl)o1)C(=O)Nc1cccc2ncccc12,NF-kB SEAP reporter activity,RAW-Dual [1]; [4],0.819
same,NF-kB SEAP reporter activity,RAW-Dual [1]; [5],1.31
N#C/C(=C/c1ccc(-c2cc(Cl)ccc2Cl)o1)C(=O)Nc1cccc2ncccc12 (library stock concentration (final ~1000-fold dilution): 10 mM),NF-kB SEAP reporter activity,RAW-Dual [2]; agonist: LPS (TLR4) 0.1 ug/mL,1.1
same,NF-kB SEAP reporter activity,RAW-Dual [2]; [6],0.888
same,NF-kB SEAP reporter activity,RAW-Dual [2]; [7],0.905
same,NF-kB SEAP reporter activity,RAW-Dual [2]; [8],0.992
CCCC(=O)OC[C@@H](OC(=O)CCC)[C@@H](OC(=O)CCC)[C@H](Cn1c2nc(=O)[nH]c(=O)c-2nc2cc(C)c(C)cc21)OC(=O)CCC,NF-kB SEAP reporter activity,RAW-Dual [1]; [9],1.26
same,NF-kB SEAP reporter activity,RAW-Dual [1]; [10],1.41
CCCC(=O)OC[C@@H](OC(=O)CCC)[C@@H](OC(=O)CCC)[C@H](Cn1c2nc(=O)[nH]c(=O)c-2nc2cc(C)c(C)cc21)OC(=O)CCC (library stock concentration (final ~1000-fold dilution): 10 mM),NF-kB SEAP reporter activity,RAW-Dual [3]; agonist: LPS (TLR4) 0.1 ug/mL,1.46
same,NF-kB SEAP reporter activity,RAW-Dual [3]; [6],1.13
same,NF-kB SEAP reporter activity,RAW-Dual [3]; [7],1.12
same,NF-kB SEAP reporter activity,RAW-Dual [3]; [8],1.4
CCCn1c(NC(=O)c2cccc(C(N)=O)c2)nc2ccccc21 (library stock concentration (final ~1000-fold dilution): 10 mM),NF-kB SEAP reporter activity,RAW-Dual [3]; agonist: LPS (TLR4) 0.1 ug/mL,0.482
same,NF-kB SEAP reporter activity,RAW-Dual [3]; [6],0.333
same,NF-kB SEAP reporter activity,RAW-Dual [3]; [7],0.143
same,NF-kB SEAP reporter activity,RAW-Dual [3]; [8],0.205
CCCn1c(NC(=O)c2cccc(C(N)=O)c2)nc2ccccc21,NF-kB SEAP reporter activity,RAW-Dual [1]; [9],0.36
same,NF-kB SEAP reporter activity,RAW-Dual [1]; [10],0.54
O=C(CCc1ccc(O)cc1)c1c(O)cc(O)cc1O (library stock concentration (final ~1000-fold dilution): 10 mM),NF-kB SEAP reporter activity,RAW-Dual [3]; agonist: LPS (TLR4) 0.1 ug/mL,1.09
same,NF-kB SEAP reporter activity,RAW-Dual [3]; [6],1.21
same,NF-kB SEAP reporter activity,RAW-Dual [3]; [7],1.15
same,NF-kB SEAP reporter activity,RAW-Dual [3]; [8],1.12
O=C(CCc1ccc(O)cc1)c1c(O)cc(O)cc1O,NF-kB SEAP reporter activity,RAW-Dual [1]; [9],1.18
same,NF-kB SEAP reporter activity,RAW-Dual [1]; [10],1.12
Cc1cn(CCN2CCN(c3ccccc3-c3cc(C#N)cc(C(=O)NCCCN4CCCC4)c3)CC2)c2ccccc12 (library stock concentration (final ~1000-fold dilution): 10 mM),NF-kB SEAP reporter activity,RAW-Dual [2]; agonist: LPS (TLR4) 0.1 ug/mL,0.181
same,NF-kB SEAP reporter activity,RAW-Dual [2]; [6],0.229
same,NF-kB SEAP reporter activity,RAW-Dual [2]; [7],0.0813
same,NF-kB SEAP reporter activity,RAW-Dual [2]; [8],0.157
Cc1cn(CCN2CCN(c3ccccc3-c3cc(C#N)cc(C(=O)NCCCN4CCCC4)c3)CC2)c2ccccc12,NF-kB SEAP reporter activity,RAW-Dual [1]; [4],0.283
same,NF-kB SEAP reporter activity,RAW-Dual [1]; [5],0.248
N#Cc1cccc(-c2c[nH]c3ncnc(N4CCOCC4)c23)c1,NF-kB SEAP reporter activity,RAW-Dual [1]; [9],1.01
same,NF-kB SEAP reporter activity,RAW-Dual [1]; [10],0.873
N#Cc1cccc(-c2c[nH]c3ncnc(N4CCOCC4)c23)c1 (library stock concentration (final ~1000-fold dilution): 10 mM),NF-kB SEAP reporter activity,RAW-Dual [3]; agonist: LPS (TLR4) 0.1 ug/mL,0.963
same,NF-kB SEAP reporter activity,RAW-Dual [3]; [6],0.792
same,NF-kB SEAP reporter activity,RAW-Dual [3]; [7],0.588
same,NF-kB SEAP reporter activity,RAW-Dual [3]; [8],0.962
CN(CC(=O)N(Cc1ccc(C2CCCCC2)cc1)c1ccc(C(=O)O)cc1)S(=O)(=O)c1c(F)c(F)c(F)c(F)c1F,NF-kB SEAP reporter activity,RAW-Dual [1]; [4],1.25
same,NF-kB SEAP reporter activity,RAW-Dual [1]; [5],0.918
CN(CC(=O)N(Cc1ccc(C2CCCCC2)cc1)c1ccc(C(=O)O)cc1)S(=O)(=O)c1c(F)c(F)c(F)c(F)c1F (library stock concentration (final ~1000-fold dilution): 10 mM),NF-kB SEAP reporter activity,RAW-Dual [2]; agonist: LPS (TLR4) 0.1 ug/mL,0.526
same,NF-kB SEAP reporter activity,RAW-Dual [2]; [6],1.82
same,NF-kB SEAP reporter activity,RAW-Dual [2]; [7],0.512
same,NF-kB SEAP reporter activity,RAW-Dual [2]; [8],0.635
OC(CNCC(O)C1CCc2cc(F)ccc2O1)C1CCc2cc(F)ccc2O1 (stereo not drawn) (library stock concentration (final ~1000-fold dilution): 10 mM),NF-kB SEAP reporter activity,RAW-Dual [2]; agonist: LPS (TLR4) 0.1 ug/mL,0.802
same,NF-kB SEAP reporter activity,RAW-Dual [2]; [6],0.486
same,NF-kB SEAP reporter activity,RAW-Dual [2]; [7],0.658
same,NF-kB SEAP reporter activity,RAW-Dual [2]; [8],0.324
OC(CNCC(O)C1CCc2cc(F)ccc2O1)C1CCc2cc(F)ccc2O1 (stereo not drawn),NF-kB SEAP reporter activity,RAW-Dual [1]; [4],1.43
same,NF-kB SEAP reporter activity,RAW-Dual [1]; [5],1.23
CC(=O)O/N=C1/C(=O)N(Cc2cc(Cl)ccc2Cl)c2ccc(Cl)cc21,NF-kB SEAP reporter activity,RAW-Dual [1]; [9],0.428
same,NF-kB SEAP reporter activity,RAW-Dual [1]; [10],1.12
CC(=O)O/N=C1/C(=O)N(Cc2cc(Cl)ccc2Cl)c2ccc(Cl)cc21 (library stock concentration (final ~1000-fold dilution): 10 mM),NF-kB SEAP reporter activity,RAW-Dual [3]; agonist: LPS (TLR4) 0.1 ug/mL,0.527
same,NF-kB SEAP reporter activity,RAW-Dual [3]; [6],0.669
same,NF-kB SEAP reporter activity,RAW-Dual [3]; [7],0.801
same,NF-kB SEAP reporter activity,RAW-Dual [3]; [8],0.323
NC(=O)C1CCC2CN1C(=O)N2OS(=O)(=O)O (stereo not drawn) (library stock concentration (final ~1000-fold dilution): 10 mM),NF-kB SEAP reporter activity,RAW-Dual [3]; agonist: LPS (TLR4) 0.1 ug/mL,0.95
same,NF-kB SEAP reporter activity,RAW-Dual [3]; [6],0.976
same,NF-kB SEAP reporter activity,RAW-Dual [3]; [7],0.98
same,NF-kB SEAP reporter activity,RAW-Dual [3]; [8],1.09
NC(=O)C1CCC2CN1C(=O)N2OS(=O)(=O)O (stereo not drawn),NF-kB SEAP reporter activity,RAW-Dual [1]; [9],0.954
same,NF-kB SEAP reporter activity,RAW-Dual [1]; [10],0.972
CC(C)(C#N)c1cc(Cn2cncn2)cc(C(C)(C)C#N)c1,NF-kB SEAP reporter activity,RAW-Dual [1]; [9],0.889
same,NF-kB SEAP reporter activity,RAW-Dual [1]; [10],1.04
CC(C)(C#N)c1cc(Cn2cncn2)cc(C(C)(C)C#N)c1 (library stock concentration (final ~1000-fold dilution): 10 mM),NF-kB SEAP reporter activity,RAW-Dual [3]; agonist: LPS (TLR4) 0.1 ug/mL,1.35
same,NF-kB SEAP reporter activity,RAW-Dual [3]; [6],0.953
same,NF-kB SEAP reporter activity,RAW-Dual [3]; [7],0.983
same,NF-kB SEAP reporter activity,RAW-Dual [3]; [8],0.948
